# Results reported in US20250145722A1, “ANTI-GAL3 ANTIBODIES AND METHODS OF USE” (TrueBinding, Inc., priority 2020, published 2025).
# B1: F846C.1H5: anti-Gal3 antibody (antibody)
# heavy: EVQLLESGGGLVKPGGSLKLSCAASGFTFSSYAMSWVRQTPEKRLEWVASISSGGDTYYPDSVKGRFTISRDNARNILYLQMSSLRSEDTAMYYCASYGNSLFDYWGQGTTLTVSSASTKGPSVFPLAPCSRSTSESTAALGCLVKDYFPEPVTVSWNSGALTSGVHTFPAVLQSSGLYSLSSVVTVPSSSLGTKTYTCNVDHKPSNTKVDKRV[letters of human IgG4 Fc with S228P (EU numbers) omitted]
# light: DVVMTQTPLSLPVSLGDQASISCRSSQSLVHNSGNTYLHWYLQRPGQSPNLLIYKVSNRFSGVPDRFSGSGSGTDFTLKISRVAAEDLGVYFCSQSTHVPPTFGGGTKLEIKRTVAAPSVFIFPPSDEQLKSGTASVVCLLNNFYPREAKVQWKVDNALQSGNSQESVTEQDSKDSTYSLSSTLTLSKADYEKHKVYACEVTHQGLSSPVTKSFNRGEC
# B2: F846TC.7F10: anti-Gal3 antibody (antibody)
# heavy: EVQLVESGGDLVKPGGSLKLSCAASGFTFSNYGLSWIRQTPDKRLEWVATISSGGSYTYYPDSVKGRFTISRDSAKNTLYLQMSSLKSEDTAMYYCARHAHYYGVSPYYFDYWGQGTCLTVSSASTKGPSVFPLAPCSRSTSESTAALGCLVKDYFPEPVTVSWNSGALTSGVHTFPAVLQSSGLYSLSSVVTVPSSSLGTKTYTCNVDHKPSNTKVDKRV[letters of human IgG4 Fc with S228P (EU numbers) omitted]
# light: DIVMTQSPSSLAMSVGQKVTMSCKSSQSLLNSSNQKNYLAWYQQKPGQSPKLLVYFASTRESGVPDRFIGSGSGTDFTLTISSVQAEDLADYFCQQHYSTPYTFGGGAKLEIKRTVAAPSVFIFPPSDEQLKSGTASVVCLLNNFYPREAKVQWKVDNALQSGNSQESVTEQDSKDSTYSLSSTLTLSKADYEKHKVYACEVTHQGLSSPVTKSFNRGEC
# B3: F847C.10B9: anti-Gal3 antibody (antibody)
# heavy: QIQLVQSGPEVKKPGETVKISCKASGYIFTNYGMNWVKQAPGKGLKWMGWINTYTGEPTYTDDFKGRFAFSLETSASTAYLQINNLKNEDTATYFCAKFGNYVGAMDYWGQGTSVTVSSASTKGPSVFPLAPCSRSTSESTAALGCLVKDYFPEPVTVSWNSGALTSGVHTFPAVLQSSGLYSLSSVVTVPSSSLGTKTYTCNVDHKPSNTKVDKRV[letters of human IgG4 Fc with S228P (EU numbers) omitted]
# light: DIRMTQSPSSLSASLGDTITITCHASQNINVWLSWYQQKPGNIPKLLIYKASNLHTGVPSRFSGSGSGTGFTLTISSLQPEDIATYYCQQGQSYPYTFGGGTKLELKRTVAAPSVFIFPPSDEQLKSGTASVVCLLNNFYPREAKVQWKVDNALQSGNSQESVTEQDSKDSTYSLSSTLTLSKADYEKHKVYACEVTHQGLSSPVTKSFNRGEC
# B4: F847C.12F12: anti-Gal3 antibody (antibody)
# heavy: QIQLVQSGPELKKPGETVKISCKASGYTFTNYGMNWVKQAPGKGLKWMGWINTYTGEPTYVDDFKGRFAFSLETSASTAYLRINNLKNEDTATYFCAKFGNYVGAMDYWGQGTSVTVSSASTKGPSVFPLAPCSRSTSESTAALGCLVKDYFPEPVTVSWNSGALTSGVHTFPAVLQSSGLYSLSSVVTVPSSSLGTKTYTCNVDHKPSNTKVDKRV[letters of human IgG4 Fc with S228P (EU numbers) omitted]
# light: DIQVIQSPSSLSASLGDTITITCHASQNINVWLSWYQQKPGNIPKLLIYKASNLHTGVPSRFSGSGSGTGFTLTISSLQPEDIATYYCQQGQSYPYTFGGGTKLELKRTVAAPSVFIFPPSDEQLKSGTASVVCLLNNFYPREAKVQWKVDNALQSGNSQESVTEQDSKDSTYSLSSTLTLSKADYEKHKVYACEVTHQGLSSPVTKSFNRGEC
# B5: F847C.26F5: anti-Gal3 antibody (antibody)
# heavy: QIQLVQSGPEVKKPGETVKISCKASGYIFTNYGMNWVKQAPGKGLKWMGWINTYTGEPTYTDDFKGRFAFSLETSASTAYLQINNLKNEDTATYFCAKFGNYVGAMDYWGQGTSVTVSSASTKGPSVFPLAPCSRSTSESTAALGCLVKDYFPEPVTVSWNSGALTSGVHTFPAVLQSSGLYSLSSVVTVPSSSLGTKTYTCNVDHKPSNTKVDKRV[letters of human IgG4 Fc with S228P (EU numbers) omitted]
# light: EIKMNQSPSSLSASLGDTITITCHASQNINVWLSWYQQKPGNIPKLLIYKASNLHTGVPSRFSGSGSGTGFTLTISSLQPEDIATYYCQQGQSYPYTFGGGTKLELKRTVAAPSVFIFPPSDEQLKSGTASVVCLLNNFYPREAKVQWKVDNALQSGNSQESVTEQDSKDSTYSLSSTLTLSKADYEKHKVYACEVTHQGLSSPVTKSFNRGEC
# B6: F847C.4B10: anti-Gal3 antibody (antibody)
# heavy: EVQLVETGGGLVKPGGSLKLSCAASGFTFSSYAMSWVRQTPEKRLEWVASISSGGSTYYPDSVKGRFTISRDNARNILYLQMSSLRSEDTAMYYCTRFTTVVEMDYWGQGTSVTVSSASTKGPSVFPLAPCSRSTSESTAALGCLVKDYFPEPVTVSWNSGALTSGVHTFPAVLQSSGLYSLSSVVTVPSSSLGTKTYTCNVDHKPSNTKVDKRV[letters of human IgG4 Fc with S228P (EU numbers) omitted]
# light: QAVVTQESALTTSPGETVTLTCRSSTGAVTTSNYANWVQEKPDHLFTGLIGGTNNRAPGVPARFSGSLIGDKAALTITGAQTEDEAIYFCALWYSNHLVFGGGTKLTVLRTVAAPSVFIFPPSDEQLKSGTASVVCLLNNFYPREAKVQWKVDNALQSGNSQESVTEQDSKDSTYSLSSTLTLSKADYEKHKVYACEVTHQGLSSPVTKSFNRGEC
# B7: F846TC.14E4: anti-Gal3 antibody (antibody)
# heavy: QVTLKESGPGILQPSQTLSLTCSFSGFSLSTSGMGVGWIRQPSGKGLEWLAHIWWDDDKYYNTALKSGLTISKDASKNQVFLKIASMDTADTATYYCARNLYDGSYGYYAMDYWGQGTSVTVSSASTKGPSVFPLAPCSRSTSESTAALGCLVKDYFPEPVTVSWNSGALTSGVHTFPAVLQSSGLYSLSSVVTVPSSSLGTKTYTCNVDHKPSNTKVDKRV[letters of human IgG4 Fc with S228P (EU numbers) omitted]
# light: DIVMTQAAFSNPVTLGTSASISCRSSKSLLHTNGITFLYWYLQKPGQSPQPLIYQMSNLASGVPDRFSSSGSGTDFTLRISRVEAEDVGVYYCAQNLELPWTFGGGTKLEINRTVAAPSVFIFPPSDEQLKSGTASVVCLLNNFYPREAKVQWKVDNALQSGNSQESVTEQDSKDSTYSLSSTLTLSKADYEKHKVYACEVTHQGLSSPVTKSFNRGEC
# Target: T1, Human Gal3 peptides (Homo sapiens, UniProt P17931)
# T1 construct: purchased LifeTein custom order; host or cells: synthetic peptides
# Assay: Gal3 peptide library binding ELISA
# Details: antibodies 5 μg/mL
# Experimental: To identify the epitopes to which Gal3 antibodies with and without Gal3-APP695 blocking activity bound, a library of 20 amino acid peptides representing portions of Gal3, summarized in FIG. 17 (SEQ ID NOs: 3-26), was produced and the ability to bind Gal3 antibodies was evaluated by ELISA.
# Human Gal3 peptides (LifeTein, custom order) and human Gal3 proteins (R&D Systems, 8259-GA; TrueBinding, QCB200349) were diluted in PBS (Corning, 21-030-CM) to concentrations of at least 100 μg/mL (peptides) or 1 μg/mL (proteins), and added to the wells of several 96-well ELISA plates (Thermo Fisher, 44-2404-21). After incubating the plates at 4° C. overnight, the plates were washed three times with PBST (PBS with 0.05% Tween 20 [VWR, 0777]). The plates were then blocked for an hour with 2% BSA (EMD Millipore, 126609) in PBST at room temperature with gentle rocking. Thereafter, the 2% BSA in PBST was discarded and Gal3-binding antibodies (reformatted hIgG4 [S228P]) were diluted in 2% BSA in PBST to concentrations of 5 μg/mL and added to the wells. The plates were incubated for an hour at room temperature with gentle rocking and then washed three times with PBST. Afterwards, Peroxidase AffiniPure F(ab′)2 Fragment Goat Anti-Human IgG (H+L) polyclonal antibody (Jackson ImmunoResearch, 109-036-003), was diluted in 2% BSA in PBST (1:4000) and added to the wells. The plates were incubated for 1 hour at room temperature with gentle rocking and then washed three times with PBST. TMB substrate (Thermo Scientific, 34029) was then added to each well. The reaction was stopped with 1M HCl (JT Baker, 5620-02) and read using a plate reader (Molecular Devices) at absorbance of 450 nm.
Molecule,Binding to Peptide 1 (SEQ ID NO: 3) of Gal3,Binding to Peptide 7 (SEQ ID NO: 9) of Gal3,Binding to Peptide 2 (SEQ ID NO: 4) of Gal3
B1,bind and bound,–,–
B2,bind and bound,–,–
B3,bind and bound,bind and bound,–
B4,bind and bound,bind and bound,–
B5,bind and bound,bind and bound,–
B6,bind and bound,–,–
B7,–,–,bind
